PubChem BioAssay AID651820 (National Center for Advancing Translational Sciences (NCATS), 2012)
The campaign covered roughly 340,000 compounds. About 12,000 (3.5%) were called active. The inconclusive results got no clear call from the source; some entries with a clear call stand among them for comparison. The call rests on the fitted dose curve; in most records, active means well fitted inhibition curve with a large enough effect; inconclusive means small, poorly fitted or top-dose-only effect, or another doubt; inactive means no such curve, though single readings can be large or run the other way. No potency is given beside an inconclusive call; the fits are too rough.

Assay: qHTS Assay for Inhibitors of Hepatitis C Virus (HCV)
Settings: Huh7.5.1 HCVcc-Cre (HCVcc is cell-culture hepatitis C virus) infection, luciferase reporter, 44 h; activity change, negative = inhibition: at 41.8 µM (top of the series) unless noted
Outline: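 Infectious HCV cell culture screen: compound-treated cells (1,000/well, pre-plated 4 h) are infected with HCVcc-Cre at roughly 0.5 moi and grown 44 h. Infection is quantified by luciferase signal after 15 min substrate incubation at room temperature.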
On the % scale 0 is the no-effect control and ±100 the full control effect; potency means the concentration at half of the fitted maximal effect; tags describe the fitted curve by direction and shape.

SMILES | Potency | activity change, negative = inhibition
NC(=O)[C@H]1CC2(CC(c3cccc(NC(=O)COc4ccc(Cl)cc4)c3)=NO2)CN1C(=O)C(c1ccccc1)c1ccccc1 (stereo partly drawn) | inconclusive [inhibitor, partial curve] | –
Cc1cc(Sc2ncnc(N)c2[N+](=O)[O-])ncn1 | inconclusive [inhibitor, single point] | –
C=CCN(C(=O)CC(NC(C)=O)c1ccccc1)c1nc(-c2ccc(S(C)(=O)=O)cc2)cs1 (stereo not drawn) | inconclusive [inhibitor, single point] | –
COc1ccc(C(=O)NCc2cccc(Cl)c2)cc1S(=O)(=O)N1CCOCC1 | inconclusive [inhibitor, partial curve, poor fit] | –
COc1ccc(N2CC(C(=O)N[C@@H](CC(C)C)C(=O)NC3CCCCC3)CC2=O)cc1 (stereo partly drawn) | inactive | –
COc1cccc(/C=C2/SC(=S)N(CCC(=O)N3CCOCC3)C2=O)c1 | inconclusive [inhibitor, single point] | –
C[n+]1cccc2c(Br)ccc([O-])c21 | inactive | –
CCCCCCCCNc1ncnc2ccccc12 | active: 0.794 µM | –
COc1ccc2c(=O)c3ccccc3oc2c1 | inconclusive [inhibitor, single point] | –
O=C(CNC(=O)c1ccco1)OCc1ccc(C(=O)Oc2ccccc2)cc1 | inconclusive [inhibitor, single point] | –
C=C(C)C1CC=C(C)/C(=N\NC(=O)CNc2ccccc2OC)C1 (stereo not drawn) | inconclusive [inhibitor, partial curve] | –
C=CS(=O)(=O)N(Cc1ccccc1Br)[C@H](CO)CC(C)C | – | inactive: 1.06% [at 8.37 µM]
O=C(O)c1ccc(Nc2nc3ccc(Cl)cc3[nH]2)cc1 | active: 2.82 µM | –
COc1ccc(S(=O)(=O)N(C)c2ccc(C(=O)N3CCCC3)cc2)cc1 | inactive | –
COc1ccc2c(c1)c(=Cc1ccc(N(C)C)cc1)c1cc(-c3ccccc3)[n+](C)n12 | inconclusive [inhibitor, full curve] | –
CC(C)N(Cc1ccccc1)S(=O)(=O)c1cccs1 | inactive | –
Cc1cc(C)c2cc(CN(CCO)C(=O)NC3CCCCC3)c(=O)[nH]c2c1 | inactive | –
Cc1ccc(C(=O)CCC(=O)Nc2cc(C)ccn2)cc1 | inactive | –
Cc1cccc(NS(=O)(=O)c2cccc(C(=O)NCc3ccccc3CN3CCOCC3)c2)c1 | inconclusive [inhibitor, partial curve] | –
CCn1c(=O)cc(SCC(=O)Nc2cccnc2)c2ccccc21 | inconclusive [inhibitor, partial curve] | –
Cc1ccc(NC(=S)NCCc2ccc(S(N)(=O)=O)cc2)cc1C | inconclusive [inhibitor, single point] | –
CCC1(c2ccccc2)NC(=O)N(CC(=O)Nc2cc(S(=O)(=O)N3CCCCC3)ccc2OC(C)C)C1=O (stereo not drawn) | active: 10 µM | –
CCOc1ccc(-c2nonc2NC(=O)c2ccco2)cc1 | inactive | –
CC1CC1C(=O)OCC(=O)NNC(=O)c1ccc([N+](=O)[O-])cc1 (stereo not drawn) | inactive | –
CCOC(=O)c1nc(S(C)(=O)=O)ncc1Cl | inconclusive [inhibitor, single point] | –

SMILES | Potency | activity change, negative = inhibition
CC(C)(CO)Nc1nc(Nc2ccccc2)nc(Nc2ccccc2)n1 | active: 10 µM | –
COc1ccc2[nH]c3c(N4CCc5ccccc5C4)ncnc3c2c1 | inconclusive [inhibitor, full curve] | –
CNS(=O)(=O)c1cccc(C(=O)NNC(=O)c2ccc(COc3ccccc3)cc2)c1 | inconclusive [inhibitor, partial curve, poor fit] | –
COc1ccc(C2(C)NC(=O)N(CC(=O)N(c3ccccc3)C3CCS(=O)(=O)C3)C2=O)cc1 (stereo not drawn) | inactive | –
CN(C)c1ccc(/C(=N\O)C(F)(F)F)cc1 | inconclusive [inhibitor, partial curve] | –
COc1ccc(Br)cc1/C=N/NC(=O)C[n+]1ccccc1 | inactive | –
Cc1ccc(S(=O)(=O)N2CCN(C(=O)CSc3nnc(C)s3)C2)cc1 | inactive | –
CN(Cc1cn(C)nc1-c1ccc(Oc2ccccc2)cc1)Cc1cnc2ccccn12 | inconclusive [inhibitor, single point] | –
OC(COc1ccc(OCC(O)CN2CCCCCC2)cc1)CN1CCCCCC1 (stereo not drawn) | active: 7.08 µM | –
CC(C)CNC(=O)COCc1cc(-c2ccc3c(c2)OCO3)on1 | inactive | –
CCN(CC)S(=O)(=O)c1ccc(C(=O)Nc2ccc(Cc3ccncc3)cc2)cc1 | active: 3.16 µM | –
COc1ccc(/C=N/Nc2nc(-c3ccc(C)cc3)c(NC(C)=O)s2)cc1 | inconclusive [inhibitor, single point] | –
COc1ccc(NS(=O)(=O)c2cccc(C(=O)N3CCN(c4ccccc4O)CC3)c2)cc1 | inconclusive [inhibitor, single point] | –
O=C(c1ccccc1)N1CCN2C(=O)c3ccccc3C12c1ccc(Cl)cc1 (stereo not drawn) | inconclusive [inhibitor, single point] | –
O=C(NCCN1CCOCC1)c1ccc(Cl)c([N+](=O)[O-])c1 | inactive | –
O=C(CCCN1C(=O)c2cccc3cccc(c23)C1=O)N1CCN(c2ccc(F)cc2)CC1 | active: 11.2 µM | –
CCc1ccccc1NC(=O)/C(=C/c1ccccc1)c1ccccc1 | inconclusive [inhibitor, full curve, poor fit] | –
O=C(Cc1ccccc1)Nc1ccc(NC(=O)c2ccco2)cc1Cl | inactive | –
COc1ccc(C)cc1NC(=O)C1CCN(S(=O)(=O)c2ccccc2)CC1 | inconclusive [inhibitor, single point] | –
CCNC(=S)Nc1ccc(OCc2nc3ccccc3s2)cc1 | inconclusive [inhibitor, single point] | –
CC1CCC2C(=O)N(c3cccc(OS(=O)(=O)c4ccccc4)c3)C(=O)C2C1 (stereo not drawn) | inactive | –
O=C(NCCCN1CCCC1=O)c1cccc(NS(=O)(=O)c2ccccc2)c1 | inactive | –
CN(Cc1ccccc1)C(=O)c1ccc(NC(=O)Cc2cccc(NC(=O)C3CCCN(C(=O)CCc4ccccc4)C3)c2)cc1 (stereo not drawn) | inconclusive [inhibitor, full curve] | –
COc1ccc(N2CCN(c3oc(COc4ccc(Cl)cc4Cl)nc3C#N)CC2)cc1 | inconclusive [inhibitor, single point] | –
CCCCC1(C)OC(=O)C(=Cc2ccc(-c3ccc(Cl)c(C(=O)O)c3)o2)C(=O)O1 (stereo not drawn) | inactive | –

SMILES | Potency | activity change, negative = inhibition
CCC(C)C(=O)N1CCc2cc(-c3csc(N)n3)ccc21 (stereo not drawn) | inconclusive [inhibitor, single point] | –
CCN(CC)CCCN1CC(O)=C(c2nc3ccccc3s2)C1=N | active: 11.2 µM | –
Cn1c(N2CCN(c3ccccn3)CC2)nc2c1c(=O)n(Cc1ccc(Cl)cc1)c(=O)n2C | inactive | –
Cc1ccc(CN2C(=O)c3ccccc3NC23CCN(Cc2ccccc2)CC3)cc1 | inconclusive [inhibitor, single point] | –
COc1cc(/C=C/c2ccc3c(Br)cc(Br)c(O)c3n2)ccc1O | active: 8.91 µM | –
O=S(=O)(c1ccccc1)N1CCC(n2cnc3ccccc32)CC1 | inconclusive [inhibitor, single point] | –
COc1cccc(-c2nc(CC(=O)O)cs2)c1OC | inconclusive [inhibitor, single point] | –
O=c1cc(N2CCc3ccccc32)[nH]c(=O)n1-c1ccc(Br)cc1 | inactive | –
COC(=O)C1=C(C)NC(=S)NC1c1ccc(N(CCCl)CCCl)cc1Cl (stereo not drawn) | inconclusive [inhibitor, full curve] | –
COCCNc1nc2c(-c3cccc(C(F)(F)F)c3)nnn2c2ccccc12 | inconclusive [inhibitor, partial curve] | –
Cc1ccc2nc(SCC(=O)Nc3cccc(S(=O)(=O)NC4=NCCCCC4)c3)[nH]c2c1 | inconclusive [inhibitor, single point] | –
Cn1cnc([N+](=O)[O-])c1S(=O)(=O)Oc1ccccc1 | inconclusive [inhibitor, single point] | –
COc1ccc(CCNC(=O)c2cc3c(=O)n4ccccc4nc3n(CC3CCCO3)c2=N)cc1 (stereo not drawn) | inconclusive [inhibitor, partial curve] | –
CC(C)CCNC(=O)C(c1ccncc1)N(CC1CCCO1)C(=O)Cn1nnc(-c2ccc(F)cc2)n1 (stereo not drawn) | inactive | –
O=C(C[n+]1cnn(CC(=O)c2ccc(Cl)cc2Cl)c1)c1ccc([N+](=O)[O-])cc1 | inconclusive [inhibitor, partial curve] | –
CN(C(=O)Cn1c(=O)oc2cc(S(=O)(=O)N3CCCC3)ccc21)C1CCCCC1 | inactive | –
COc1ccc(-c2noc(CCC(=O)NCC3CCN(Cc4cccc(C)c4)CC3)n2)cc1 | inconclusive [inhibitor, partial curve] | –
CCOc1ccc(NC(=O)c2ccc(CN3CCc4ccccc4C3)cc2)cc1 | active: 2 µM | –
O=[N+]([O-])c1ccc(N2CCOCC2)cc1NC(c1ccccc1)c1ccccc1 | inconclusive [inhibitor, partial curve] | –
O=C(Nc1ccc(S(=O)(=O)Nc2ccc(F)cc2)cc1)c1ccc(CN2CCOCC2)cc1 | active: 1 µM | –
Cc1cccc(-c2nsc(SCC(=O)Nc3nccs3)n2)c1 | inactive | –
COc1cc(NC(=O)Nn2cnnc2)cc(OC)c1OC | inactive | –
CCOC(=O)c1c(C)oc2c(F)c(F)c(F)c(F)c2c1=O | active: 10 µM | –
